Article PMC4336329 (PLoS ONE, 2015)
Hit rate of the full screen: of about 310,000 compounds, about 2,200 (0.71%) showed an effect of 50% or more. The effect is printed as a negative number. The list shows a part of the results.

The compounds below were run against human ether-à-go-go-related gene (hERG) potassium channel (human, UniProt Q12809) (assay: primary screen, population patch clamp on CHO cells stably expressing hERG).
Sequence of human ether-à-go-go-related gene (hERG) potassium channel (Q12809 whole entry, looked up): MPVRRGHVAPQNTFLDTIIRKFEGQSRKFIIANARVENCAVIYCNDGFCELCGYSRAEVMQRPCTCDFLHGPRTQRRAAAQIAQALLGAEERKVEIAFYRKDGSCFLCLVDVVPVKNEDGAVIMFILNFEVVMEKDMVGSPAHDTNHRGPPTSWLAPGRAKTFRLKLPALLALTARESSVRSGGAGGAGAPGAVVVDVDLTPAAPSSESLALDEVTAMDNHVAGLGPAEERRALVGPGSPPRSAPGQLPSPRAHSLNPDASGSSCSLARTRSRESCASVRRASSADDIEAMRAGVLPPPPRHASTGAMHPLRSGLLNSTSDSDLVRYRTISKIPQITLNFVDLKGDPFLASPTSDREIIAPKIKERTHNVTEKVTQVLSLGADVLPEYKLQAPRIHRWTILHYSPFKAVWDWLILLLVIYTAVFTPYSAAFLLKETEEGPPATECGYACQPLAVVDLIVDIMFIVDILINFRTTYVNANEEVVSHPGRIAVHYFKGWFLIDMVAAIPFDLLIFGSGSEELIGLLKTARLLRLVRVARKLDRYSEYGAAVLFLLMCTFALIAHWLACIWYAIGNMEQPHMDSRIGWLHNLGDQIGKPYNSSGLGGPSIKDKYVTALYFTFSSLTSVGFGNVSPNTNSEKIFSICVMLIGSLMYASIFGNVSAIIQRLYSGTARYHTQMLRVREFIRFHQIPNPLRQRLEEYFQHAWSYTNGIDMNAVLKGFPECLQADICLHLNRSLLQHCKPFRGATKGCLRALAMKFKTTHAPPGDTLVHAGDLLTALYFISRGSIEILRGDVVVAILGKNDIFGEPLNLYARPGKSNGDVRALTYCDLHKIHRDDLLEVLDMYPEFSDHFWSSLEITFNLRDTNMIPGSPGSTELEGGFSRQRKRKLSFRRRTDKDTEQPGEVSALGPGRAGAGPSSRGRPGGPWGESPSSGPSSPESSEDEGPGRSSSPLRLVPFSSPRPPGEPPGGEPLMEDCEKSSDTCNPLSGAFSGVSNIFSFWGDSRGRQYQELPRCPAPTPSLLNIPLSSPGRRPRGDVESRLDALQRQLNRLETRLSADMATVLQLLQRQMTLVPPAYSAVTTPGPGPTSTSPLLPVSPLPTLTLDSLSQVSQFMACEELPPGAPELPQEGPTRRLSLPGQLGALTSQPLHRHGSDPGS

SMILES	hERG current change (%, negative = inhibition) at 1uM
Cc1ncc(CO)c(/C=N/NC(=O)c2ccc(Br)cc2)c1O	3.37%
CCCCn1c(N)c(N(CCOC)C(=O)c2cc(=O)[nH]c3ccccc23)c(=O)[nH]c1=O	5.99%
CCCn1cnc2c(c1=O)c1nc3ccccc3nc1n2CCc1ccccc1	9.14%
Cl.O=C(c1ccco1)N1CCN(C(c2ccc(F)cc2)c2nnnn2Cc2cccs2)CC1 (stereo not drawn)	-14.9%
CC(=O)NCCNS(=O)(=O)c1ccc(C)c([N+](=O)[O-])c1	10.6%
COc1cc(OC)c(C(=O)CCC(=O)O)cc1OC	-2.05%
CN1C2CCC1CC(OC(c1ccccc1)c1ccccc1N)C2 (stereo not drawn)	-39.2%
Cc1cc(C)c(C(=O)OCC(=O)NCc2cccs2)c(C)c1	5.28%
COc1ccc(CC(=O)Nc2cccc(-c3csc(C)n3)c2)cc1	4.49%
COc1cccc(NC(=O)Cn2c(CCC(=O)O)ccc2-c2cccs2)c1	11%
O=S(=O)(c1ccccc1)N1CCNCC1	10.4%
CC1Cc2ccccc2N1CC(=O)NC(=O)NC1CCCC1 (stereo not drawn)	-1.62%
CCCCN(CC)CCNC(=O)c1ccc2c(Cl)c3c(nc2c1)CCC3	5.61%
O=C(NCCN1CCOCC1)c1cc(Cl)ccc1[N+](=O)[O-]	14.6%
COc1ccc(NC(=O)c2cn3c(nc4ccccc43)c(C#N)c2C)cc1	4.96%
O=C1CC(/C=C/c2ccccc2)=Nc2ccccc2N1	6.2%
O=C(COc1ccccc1Cl)c1ccc2c(c1)CCCC2	5.2%
O=C(N/N=C\c1cc(Br)ccc1O)c1ccc(S(=O)(=O)N2CCCCC2)cc1	15.6%
O=C(Nc1ccccc1)c1ccc(F)cc1F	8.41%
CC(=O)O[C@H]1C[C@@H]2CC[C@@H]3[C@H](CC[C@@]4(C)[C@H]3C[C@H]([N+]3(C)CCCCC3)[C@@H]4OC(C)=O)[C@@]2(C)C[C@@H]1N1CCCCC1.[Br-]	20.4%
O=C(C[N+]12CCN(CC1)CC2)NCCc1ccc(Cl)cc1Cl.[Cl-]	17.3%
COCCCNC(=O)C(=O)Nc1ccc2c(c1)N(S(=O)(=O)c1cccs1)CCC2	10.1%

SMILES	hERG current change (%, negative = inhibition) at 1uM
CC(C)(C)NC(=O)CN(C(=O)CNS(=O)(=O)c1ccc(Cl)cc1)c1ccc2c(c1)OCCO2	4.44%
CC1(C)NC(=O)N(CCOc2cccc(Cl)c2Cl)C1=O	5.11%
CC(=O)c1sc2nsc(SCCN3CCCC3)c2c1N	12%
O=C(CNS(=O)(=O)c1cccs1)Nc1ccc2c(c1)OCCO2	15.2%
C(=N\Nc1nc2ccccc2[nH]1)/c1ccc2ncccc2c1	10.8%
CCn1cc(CNC(=O)c2ccc(C)s2)cn1	7.72%
Cc1nn(-c2ccccc2)c(Cl)c1C(=O)Nc1ccccc1	7.05%
c1ccc(-n2nnnc2-n2nnc3ccccc32)cc1	10.4%
CCOC(=O)c1[nH]c2ccc(OC)cc2c1NC(=O)c1cccc(OC)c1	3.45%
CC(=O)NS(=O)(=O)c1ccc(NC(=O)c2cc(-c3ccc(C)cc3)nc3ccccc23)cc1	5.15%
O=C1CC(=O)N(Cc2ccco2)C(=O)N1	-3.52%
C/C(=N\NC(=O)c1ccccc1)c1ccc(NC(=O)c2cccs2)cc1	-2.08%
COCC(=O)N(Cc1cc2ccc(C)cc2[nH]c1=O)c1cccc(C)c1	11.9%
CN(C)S(=O)(=O)c1cccc(-c2nnc(SCc3ccc4c(c3)OCCO4)o2)c1	-0.0123%
CN(C)CCC(=O)c1ccc(F)cc1.Cl	5.98%
Cc1ccc(-n2c(SCC(=O)OC(C)C)nnc2-c2ccco2)cc1	-2.47%
CN(C)S(=O)(=O)c1ccc(C(=O)OCC(=O)c2ccc3c(c2)NC(=O)CO3)cc1	9.19%
Nc1nonc1-c1noc(N2CCCCC2)n1	13.4%
COC(=O)C(O)(c1ccc(NC(=O)NC2CCCCC2)cc1)C(F)(F)F (stereo not drawn)	9.14%
Cc1ccc(-c2c(C)n([O-])c3c([n+]2=O)CCCCC3)cc1	16.8%
COc1ccc(CCC(=O)NCCc2ccc(Cl)cc2)cc1	6.2%
CCNC(=O)CC1C(=O)N(c2ccccc2)C(=O)N1Cc1ccc(OC)cc1 (stereo not drawn)	14.4%

SMILES	hERG current change (%, negative = inhibition) at 1uM
O=C(NCCCN1CCOCC1)c1ccccc1N1C(=O)[C@@H]2Cc3c([nH]c4ccccc34)C(c3cccc(Cl)c3)N2C1=O (stereo partly drawn)	-19.4%
Cc1c(C(=O)NC(C)C2CC3CCC2C3)cccc1[N+](=O)[O-] (stereo not drawn)	12.7%
Cl.c1coc(Cn2nnnc2CN2CCN(C3CCCCC3)CC2)c1	-13.5%
COc1ccc(-c2nn(-c3ccccc3)cc2/C=C/C(=O)OCC(=O)Nc2cccc(C#N)c2)cc1	5.97%
O=C(CSc1ccc2ccccc2n1)N/N=C/c1ccccc1O	15.9%
CN1CCCN=C1COC(=O)C(O)(c1ccccc1)C1CCCCC1.Cl (stereo not drawn)	14.6%
O=C(CN1C(=O)NC2(CCCCC2)C1=O)Nc1ccc(Cl)c(S(=O)(=O)N2CCOCC2)c1	21.2%
COc1ccc2c(c1)c(=O)cc(-c1ccccc1)n2C	8.15%
CCC(C)NS(=O)(=O)c1cc2c3c(c1)CCN3C(=O)CC2 (stereo not drawn)	19.7%
CCOC(=O)c1sc2nc(CC(=O)OC)nc(NCC(=O)OC)c2c1C	9.63%
NS(=O)(=O)c1ccc(NS(=O)(=O)c2ccc(NC(=S)Nc3ccccc3)cc2)cc1	9.35%
NC(=O)c1ncc(C(F)(F)F)cc1Oc1cccc(F)c1	12.5%
O=C(OCC(=O)N1CCN(c2ccccc2)CC1)c1cc(Br)ccc1Cl	-3.93%
CCCn1c(C)c(C(=O)c2cccc3ccccc23)c2ccccc21	8.01%
CCOC(=O)c1cc2occc2n1Cc1ccc(F)cc1	21%
COC(=O)c1[nH]c2ccc(C)cc2c1NC(=O)C1=COCCO1	8.92%
CC(NC(=O)C(=O)Nc1nccs1)c1ccccc1 (stereo not drawn)	13.5%
Cc1ccc(OCC(=O)N/N=C\c2cccs2)c([N+](=O)[O-])c1	9.22%
Cc1ccc(S(C)(=O)=O)cc1C(=O)NC(C)C1CC2CCC1C2 (stereo not drawn)	12.5%
C[C@H]1[C@H](C)CC[C@]2(C)CC[C@]3(C)C(=CC[C@@H]4[C@@]5(C)CC[C@@H](O)[C@](C)(C(=O)O)[C@@H]5CC[C@]43C)[C@H]12	13.6%
CCC(C)Nc1nc2c(c(=O)n(C)c(=O)n2C)n1Cc1cccc(C)c1 (stereo not drawn)	8.01%
Cc1ccc(C2=N/C(=C\N3CCCCC3)C(=O)O2)cc1	-4.78%

SMILES	hERG current change (%, negative = inhibition) at 1uM
Nc1nc(Nc2ccc(Cl)cc2)nc(NCCO)c1[N+](=O)[O-]	26.7%
O=C(Nc1ccccc1C(=O)O)c1ccc(NC(=O)C2CC2)cc1	11.6%
O=C(CCc1cnccn1)NC1CCCc2c1cnn2-c1ccc(F)cc1F (stereo not drawn)	2.91%
CCN(CC(=O)Nc1ccc(NC(C)=O)cc1)C(=O)c1c(-c2c(F)cccc2Cl)noc1C	14.9%
COc1cccc(-c2csc(N3CCN(C(=O)Nc4ccc(Cl)cc4)CC3)n2)c1	5.69%
O=C(NCCc1ccc(F)cc1)N1CCOCC1	4.37%
COCCCn1c(-c2ccc(S(=O)(=O)N3CCOCC3)cc2)csc1=Nc1ccccc1	-1.23%
O=C(C1CCN(S(=O)(=O)c2ccccc2F)CC1)N1CCc2ccccc2C1	-11.9%
CC(C)NC(=O)NC1C2CC3CC(C2)CC1C3 (stereo not drawn)	9.26%
Cc1cc2ncn(-c3ncnc4sc(C)c(C)c34)c2cc1C	3.06%
CO/N=C(/CS(=O)(=O)c1ccc(C)cc1)c1ccc(OC)cc1	12.3%
COc1cc(/C=N/NC(=O)Cn2cnc3ccccc3c2=O)ccc1O	15%
COc1ccc(NC(=O)CCNS(=O)(=O)c2ccc3c(c2)CC(C)N3C(C)=O)cc1 (stereo not drawn)	-1.9%
COc1ccc(C)cc1S(=O)(=O)N(CC(=O)Nc1cccc([N+](=O)[O-])c1)c1ccccc1	9.33%
Cc1cccc(NC(=S)N2CCC(O)CC2)c1C	8.23%
C[C@H](NC(=O)N1CCn2c1nc1ccccc12)C(=O)NCc1ccccc1	11.4%
COC(=O)[C@H](Cc1ccccc1)NC(=O)Nc1ccc(S(N)(=O)=O)cc1	-5.61%
O=C(COc1ccc(Br)cc1Cl)NC(=O)NCc1ccccc1	4.64%
CC(=O)c1c(C)[nH]c(C(=O)Nc2cccc(C)n2)c1C	13.4%
Cc1ccc(-c2ccc(/C=N/N=C3/NC(=O)C(CC(=O)O)S3)o2)c([N+](=O)[O-])c1 (stereo not drawn)	13.7%
NS(=O)(=O)c1ccc(CCNC(=O)c2ccc(Cl)s2)cc1	1.77%
